Data as given in paper PMC8103106.
Results are given in words; binding and its absence hold for the method and conditions named. In cells and extracts the contact can be indirect. Some entries that bind do so weakly or less than the wild type. Where a sequence is shown, tags or fusion partners need not be part of it.

Sequences of proteins named here, by UniProt entry; tags and fusion partners are left off.
UniProt Q9NVJ2: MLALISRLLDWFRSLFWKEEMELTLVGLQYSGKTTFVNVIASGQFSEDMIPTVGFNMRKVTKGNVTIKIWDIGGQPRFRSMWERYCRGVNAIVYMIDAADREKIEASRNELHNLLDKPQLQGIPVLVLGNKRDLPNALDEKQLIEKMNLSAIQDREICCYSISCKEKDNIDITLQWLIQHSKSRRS

Molecular target: GFP-Arl8b (UniProt Q9NVJ2)
Assay: co-IP; HeLa^WT cells transiently co-expressing VPS41-APEX2-V5 constructs and FLAG-RAB7 or GFP-Arl8b; IP on FLAG or GFP, respectively; CHAPS lysis buffer

binding: binds
B1: VPS41^WT-APEX2-V5 (protein, UniProt P49754-1 1-854)
chain: MAEAEEQETGSLEESTDESEEEESEEEPKLKYERLSNGVTEILQKDAASCMTVHDKFLALGTHYGKVYLLDVQGNITQKFDVSPVKINQISLDESGEHMGVCSEDGKVQVFGLYSGEEFHETFDCPIKIIAVHPHFVRSSCKQFVTGGKKLLLFERSWMNRWKSAVLHEGEGNIRSVKWRGHLIAWANNMGVKIFDIISKQRITNVPRDDISLRPDMYPCSLCWKDNVTLIIGWGTSVKVCSVKERHASEMRDLPSRYVEIVSQFETEFYISGLAPLCDQLVVLSYVKEISEKTEREYCARPRLDIIQPLSETCEEISSDALTVRGFQENECRDYHLEYSEGESLFYIVSPRDVVVAKERDQDDHIDWLLEKKKYEEALMAAEISQKNIKRHKILDIGLAYINHLVERGDYDIAARKCQKILGKNAALWEYEVYKFKEIGQLKAISPYLPRGDPVLKPLIYEMILHEFLESDYEGFATLIREWPGDLYNNSVIVQAVRDHLKKDSQNKTLLKTLAELYTYDKNYGNALEIYLTLRHKDVFQLIHKHNLFSSIKDKIVLLMDFDSEKAVDMLLDNEDKISIKKVVEELEDRPELQHVYLHKLFKRDHHKGQRYHEKQISLYAEYDRPNLLPFLRDSTHCPLEKALEICQQRNFVEETVYLLSRMGNSRSALKMIMEELHDVDKAIEFAKEQDDGELWEDLILYSIDKPPFITGLLNNIGTHVDPILLIHRIKEGMEIPNLRDSLVKILQDYNLQILLREGCKKILVADSLSLLKKMHRTQMKGVLVDEENICESCLSPILPSDAAKPFSVVVFHCRHMFHKECLPMPSMNSAAQFCNICSAKNRGPGSAILEMKK
